Read counts are not given, so values of variants with three or more changes are uncertain.
B1: CPEB3 Ribozyme (parent)
chain: UAACAGGGGGCCACAGCAGAAGCGUUCACGUCGCAGCCCCUGUCAGAUUCUGGUGAAUCUGCGAAUUCUGCUGUAUAUCUC

Variants of: B1
Test: self-cleavage, relative activity (ratio to wild type); higher = more cleavage; in vitro, sequencing
Procedure, shortened: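 After error-prone PCR and barcoding, CPEB3 ribozyme mutant libraries were transcribed with T7 RNA polymerase at 37°C for 5 hours, then given 15 min with DNase I before an EDTA stop, and they cleaved during both steps. Reverse transcription with template switching preceded Illumina sequencing. Relative activity divides a variant's cleaved/total read fraction by the unmutated ribozyme's. At least 5 reads were required per variant, and three batches were averaged.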

Row | Variant | self-cleavage
1 | UAACAGGGGGCCACAGCAGCAGCGUUCACGUCGCAGCCCCUGUCAGAUUCUGGUGAAUCUGCGUAUUCUGCUGUAUACCUC | 0.33
2 | UAACAGGGGGCCACAGCAGCAGCGUUCACGUUGCAGCCCCUGUCAGACUCUGGUGAAUCUGCGGAUUCUGCUGUAUAUCUC | 0.05
3 | UAACAGGGGGCCACAGCAGCAGCGUUCACGUCGCAGCCCCUGUAAGAUUCUGGUGAAUCUGCGAAUUCUGCCGUAUAUCUC | 0.23
4 | UAACAGGGGGCCACAGCAGCAGCGUUCACGUCGCAGCCCCUGUGAGAUUCUGGUGAAACUGCGAAUUCCGCUGUAUAUCUC | 0.17
5 | UAACAGGGGGCCACAGCAGCAGCGUCCACGUCGCAGCCCCUGUCAGAUUCUGGUGGAUCAGCGAAUUCCGCUGUAUAUCUC | 0.08
6 | UAACAGGGGGCCACAGCAGCAGCGUCCACGUCUCAGCCCCUGUCAGAUUCUGGUGAAUCUGCGAGUUCUGCUGUAUAUCUC | 0.06
7 | UAACAGGGGGCCACAGCAGCAGCGUCCACGUCGCAGCCCCUGUCAGAUUCUGGUGAAUCUGCGAAUUCUGCCGUACAUCUC | 0.35
8 | UAACAGGGGGCCACAGCAGCAGCGUUCACGACGCAGCCCCUGUCAGAUUCUGGUGAAUCUGCGAAUUCUGCCGUAUAUCUC | 0.1
9 | UAACAGGGGGCCACAGCAGCAGCGUUCACGUCGCAGCCCCUGCCAGAUUCUGGUGAAUCUGCGAAUUCUGCUGUAUAUAUC | 0.34
10 | UAACAGGGGGCCACAGCAGCAGCGUUCACGUCGCAGCCCCUGCCAGAUUCUGGUGAAUCUGCGAAUUCUGCUGUAUAUCGC | 0.24
11 | UAACAGGGGGCCACAGCAGCAGCGUUCACGUCGCAGCCCCUGUCAGAUUCUGGAGGAUCUGCGGAUUCUGCUGUAUAUCUC | 0.33
12 | UAACAGGGGGCCACAGCAGCAGCGUUCACGUCGCAGCCCCUGUCAGAUUCUGGCGAAUCAGCGAAUUCUGCUGUAUAUCUC | 0.12
13 | UAACAGGGGGCCACAGCAGCAGCGUUCACGUCGCAGCCCCUGUCAGAUUCUGGUGAACCUGCGAAUUCUGCAGUAUAUCUC | 0.12
14 | UAACAGGGGGCCACAGCAGCAGCGUUCACGUCGCAGCCCCUGUCAGAUUCUGGUGAAUCUGCGAAACCUGCUGUAUAUCUC | 0.15
15 | UAACAGGGGGCCACAGCAGGCGCGUUCACGGCGCAGCCCUUGUCAGAUUCUGGCGAAUCCGCGAAUUCUGCUGUAUAUCUC | 0.04
16 | UAACAGGGGGCCACAGCAGGGGCGUUCCCGUCGCAGCCCCUGUCAGAUUCUGGUGAAUCUGCGAAUUCUGCUGUAUAUCUC | 0.4
17 | UAACAGGGGGCCACAGCAGGGGCGUUCCCGUCGCAGCCCCUGUCAGGUUCUGGUGAAUCUGCGAAUUCUGCUGUAUAUCUC | 0.37

Row | Variant | self-cleavage
18 | UAACAGGGGGCCACAGCAGGGGCGUUCCCGUCGCAGCCCCUAUCAGAUACUGGUGAAUCUGCGAAUUCUGCUGUAUAUCUC | 0.32
19 | UAACAGGGGGCCACAGCAGGGGCGUUCACGUCGCGGCCCCUGUCGGAUUCUGGUGAAUCUGCGAAUUCUGCUGUAUAUCUC | 0.56
20 | UAACAGGGGGCCACAGCAGGGGCGUUCACGUCGCAGCCCCUGUCGGAUUCUGGUGAGUCUGCGAAUUCUGCUGUAUAUCUC | 0.08
21 | UAACAGGGGGCCACAGCAGGGGCGCUCACGUCGCAGCCCCUGUCAGAUUCUGGUGAAUCUGCGGAUUCUGCGGUAUAUCUC | 0.03
22 | UAACAGGGGGCCACAGCAGGGGCGUACACGUCGCAGCCCCUGUCAGGUUCUGGUGAAUCUGCGAAUUCUGCUGUAAAUCUC | 0.05
23 | UAACAGGGGGCCACAGCAGGGGCGUCCACGUCGCUGCCCCUGUCAGAUUCUGGUGAAUCUGCGAAUUCUGCUGUAUAUCUC | 0.45
24 | UAACAGGGGGCCACAGCAGGGGCGUUCACGCCGCAGCCCCGGUCAGAUCCUGGUGAAUCUGCGAAUUCUGCUGUUUAUCCC | 0.59
25 | UAACAGGGGGCCACAGCAGGGGCGUUCACGUCGCAGCCCCCGCCAGAUUCUGGUGAAUCUGCGAACUCUGCUGUAUAUCUC | 0
26 | UAACAGGGGGCCACAGCAGGUGCGUUCACGUCGCAACCCCUGUCAGAUUCUGGUGAAUCUGCGAAUUCUGCUGUAUAUCUC | 0.25
27 | UAACAGGGGGCCACAGCAGGAGCGUUCGCGUCGCCGCCCCUGUCAGAUUCUGGUGAAUCUGCGAAUCCUGCUGUAUAUCUC | 0.28
28 | UAACAGGGGGCCACAGCAGGAGCGUUCGCGUCGCGGCCACUGUCAGAUUCUGGUGAGUCUGCGAAUUCUGCUGUAUAUCUC | 0.24
29 | UAACAGGGGGCCACAGCAGGAGCGUUCGCGUCGCGGCCCCUGACAGAUUCUGGUGAGUCUGCGAAUUCUGCUGUAUAUCUC | 0.98
30 | UAACAGGGGGCCACAGCAGGAGCGUUCGCGUCGCUGCCCCUGUCAGAUUCUGGUUAAUCUGCGAAUUCUGCUGUAUAUCUC | 0.18
31 | UAACAGGGGGCCACAGCAGGAGCGUUCGCGUCGCAGCCCCUGUCAGAUUCUGGUGAAUCUGCGAGUUCUGCUGUAUAUCUC | 0.09
32 | UAACAGGGGGCCACAGCAGGAGCGUUCGCGUCGCAGCCCCUGUCAGAUUCUGGUGAAUCUGCGAGUUCUGCUGUAUAUCGC | 0.2
33 | UAACAGGGGGCCACAGCAGGAGCGUUCGCGUCGCAGCCCCUGUCAGAUUCUGGUGAAUCUGCGAAUUCUGCUGUUUAUCUC | 0.41
34 | UAACAGGGGGCCACAGCAGGAGCGUUCGCGUCGCAGCCCCUGUUAGAUUCUGGUCAAUCUGUGAAUUCUGCUGUAUAUCUC | 0.13

— the RNAGym collection of RNA variant scans (doi:10.1093/nar/gkz1192)
